# From PubChem BioAssay (Tox21)
# Where “and” joins values, the source holds several entries; their conditions need not be identical. Equal values may be shown once. This list was built around the results that the source calls inconclusive (neither active nor inactive); the mix of calls is not that of the screen. A potency beside an inconclusive call is a rough fit, not a confirmed value. Some compounds were tested as several samples or in several runs, with calls that do not always agree. Calls of active or inactive are those of the source. Unless noted, calls come from the whole dose curve; as a rule, active = well fitted curve in the direction sought with a large enough effect in the repeat runs; inconclusive = weak or mixed curves; inactive = no such curve, though single readings can be large; an effect the other way counts as inactive or inconclusive.
# Target: Thyrotropin-releasing hormone receptor (Homo sapiens) (UniProt P34981)
# Chain of UniProt P34981 (P34981 whole entry, looked up): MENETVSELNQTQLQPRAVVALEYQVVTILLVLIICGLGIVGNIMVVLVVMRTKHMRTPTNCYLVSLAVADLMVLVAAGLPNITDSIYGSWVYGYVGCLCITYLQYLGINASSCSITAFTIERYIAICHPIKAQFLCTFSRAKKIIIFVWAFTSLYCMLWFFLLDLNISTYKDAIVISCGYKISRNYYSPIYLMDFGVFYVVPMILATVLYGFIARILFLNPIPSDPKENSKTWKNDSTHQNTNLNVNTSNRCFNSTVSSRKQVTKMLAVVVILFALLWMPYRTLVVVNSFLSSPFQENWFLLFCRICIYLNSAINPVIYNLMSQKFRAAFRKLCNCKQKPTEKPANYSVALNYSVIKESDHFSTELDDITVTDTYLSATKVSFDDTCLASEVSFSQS
# Test: qHTS assay to identify small molecule antagonists of the thyrotropin-releasing hormone receptor (TRHR) signaling pathway (AID 1346877; active = well fitted inhibition curve with a large enough effect in the repeat runs, not every such curve was filed as active; inconclusive = weak or mixed curves; for activity, negative = inhibition: % is set by controls: 0 for no effect and ±100 for the full control effect)
# Details: TRHR-HEK293, TRH-induced calcium fluorescence, antagonist mode; series mostly up to 51.3 µM
# In short: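 Antagonist mode: after a 5 min room-temperature compound exposure, cells were stimulated with 1 nM (final) TRH. Dye-loaded TRHR-HEK293 cells were used, and calcium-dependent fluorescence was followed for 3 min, with 15-point titrations run in triplicate.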
# Potency is the fitted concentration of half-maximal effect; tags give direction and shape of the fitted curve or compound fluorescence and quenching.
row,Compound,Potency
1,CC(C)(C)C(O)/C(=C\c1ccc(Cl)cc1Cl)n1cncn1 (stereo not drawn),"inconclusive: 45.9 µM [inhibitor, single point]"
2,CS/C(C)=N/OC(=O)N(C)SN(C)C(=O)O/N=C(\C)SC,"inconclusive: 38 µM [inhibitor, single point]"
3,c1ccc(N2CCNCC2)cc1,"inconclusive: 0.294 µM [inhibitor, single point]"
4,O=C1NCN(c2ccccc2)C12CCN(CCCOc1ccc(F)cc1)CC2,active: 6.58 µM
5,O=c1n(Cl)c(=O)n(Cl)c(=O)n1Cl,inactive
6,Cc1cc(C(C)(C)c2ccc(O)c(C)c2)ccc1O,"inconclusive: 28.7 µM [inhibitor, partial curve]"
7,Oc1c(Br)c(Br)c(Br)c(Br)c1Br,"inconclusive: 30.4 µM [inhibitor, single point]"
8,Oc1c(I)cc(I)cc1I,"inconclusive: 33.8 µM [inhibitor, single point]"
9,CSC1=N[C@@](C)(c2ccccc2)C(=O)N1Nc1ccccc1,inactive
10,IC(I)=C(I)I,active: 1.2 µM
11,C=CCO,"inconclusive: 38 µM [inhibitor, single point]"
12,CCCCOC(=O)c1ccccc1N,inactive
13,Nc1ccc(Cl)cc1,"inconclusive: 38.6 µM [inhibitor, single point]"

# Target: Thyrotropin-releasing hormone receptor (Homo sapiens) (UniProt P34981)
# Test: qHTS assay to identify small molecule agonists of the thyrotropin-releasing hormone receptor (TRHR) signaling pathway (AID 1346891; calls by dose curve; for activation: % is set by controls: 0 for no effect and ±100 for the full control effect)
# Details: TRHR-HEK293 calcium fluorescence, agonist mode; series mostly up to 57.6 µM
# In short: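 Agonist-mode intracellular calcium readout: kinetic fluorescence over 3 min at 1 s intervals after compound addition to TRHR-HEK293 cells (18 h seeded, 2 h dye-loaded at 37 C). Fifteen concentrations, triplicates.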
row,Compound,Potency
1,CC(C)(C)C(O)/C(=C\c1ccc(Cl)cc1Cl)n1cncn1 (stereo not drawn),"inconclusive: 52.8 µM [activator, partial curve, poor fit]"
2,C[N+](C)(C)C,inactive
3,O=C(CCN1CC1)OCC(CO)(COC(=O)CCN1CC1)COC(=O)CCN1CC1,inactive
4,Oc1c(I)cc(I)cc1I,"inconclusive: 38.9 µM [activator, single point]"
5,C=CCO,active: 8.71 µM

# System: not listed separately
# Test: qHTS assay to identify small molecule antagonists of the TGF-beta/Smad signaling pathway (AID 1346924; active = well fitted inhibition curve with a large enough effect in the signal ratio in the repeat runs, not every such curve was filed as active; inconclusive = weak or mixed curves; the % refers to the signal ratio)
# Details: SBE-bla HEK293T, TGF-beta/Smad reporter, beta-lactamase ratio; activity, negative = inhibition: at 76.8 µM (top of the series) unless noted
# In short: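 Read-out was FRET-substrate fluorescence (405 nm excitation; 460 and 530 nm emission) after 2 h at room temperature. Before that, cells carrying a Smad-binding-element beta-lactamase reporter in HEK 293T had been stimulated 5 h at 37 C with TGF-beta1 (0.25 ng/mL addition solution) in the presence of test compound.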
Compound,"activity, negative = inhibition",Potency
CC(C)(C)C(O)/C(=C\c1ccc(Cl)cc1Cl)n1cncn1 (stereo not drawn),inconclusive: -17.1%,
O=C1NCN(c2ccccc2)C12CCN(CCCOc1ccc(F)cc1)CC2,inconclusive: -1.09% [at 35.3 µM],
O=c1n(Cl)c(=O)n(Cl)c(=O)n1Cl,inconclusive: 4%,
Cc1cc(C(C)(C)c2ccc(O)c(C)c2)ccc1O,inconclusive: -26.3%,
Oc1c(Br)c(Br)c(Br)c(Br)c1Br,inconclusive: -20.1%,
CSC1=N[C@@](C)(c2ccccc2)C(=O)N1Nc1ccccc1,inconclusive: -32.1%,
C=CC[C@]1(O)CC[C@H]2[C@@H]3CCC4=CC(=O)CCC4=C3C=C[C@@]21C,,"inconclusive: 21.3 µM [rising, partial curve, poor fit]"
IC(I)=C(I)I,,inconclusive: 21.9 µM
O=C(NC(=O)c1c(F)cccc1F)Nc1cc(Cl)c(Oc2ncc(C(F)(F)F)cc2Cl)c(Cl)c1,,"inconclusive: 1.48 µM [fluorescent, full curve]"
Nc1ccc(Cl)cc1,inconclusive: -14.2%,

# System: not listed separately
# Test: Human pregnane X receptor (PXR) small molecule agonists, qHTS cell viability counter screen (AID 1346977); note: nearly all actives have a fitted effect of over 50% in size
# Details: PXR-Luc HepG2 viability, CellTiter-Fluor, 24 h; series mostly up to 92.4 µM
# In short: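 Same-well viability read: CellTiter-Fluor added after 23 hr compound exposure, fluorescence measured 1 hr later. Cells were PXR-Luc HepG2 seeded at 2,000/well in 5% charcoal-stripped FBS medium, rested 5 hr before dosing at 37 C.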
row,Compound,Potency
1,CS/C(C)=N/OC(=O)N(C)SN(C)C(=O)O/N=C(\C)SC,"inconclusive: 68.6 µM [cytotoxic, single point]"
2,C[Si](Cn1cncn1)(c1ccc(F)cc1)c1ccc(F)cc1,"inconclusive: 79.4 µM [cytotoxic, single point] and inconclusive: 77 µM [cytotoxic, single point]"
3,O=c1n(Cl)c(=O)n(Cl)c(=O)n1Cl,inactive
4,Cc1cc(C(C)(C)c2ccc(O)c(C)c2)ccc1O,active: 20.7 µM
5,Oc1c(Br)c(Br)c(Br)c(Br)c1Br,"inconclusive: 69 µM [cytotoxic, single point]"
6,Nc1ccc(Cl)cc1C(=O)c1ccccc1,inconclusive: 61.1 µM [cytotoxic]
7,O=c1oc2ccccc2c(O)c1Cc1c(O)c2ccccc2oc1=O,"inconclusive: 33.5 µM [rising, partial curve, poor fit]"
8,Oc1c(I)cc(I)cc1I,"inconclusive: 68.6 µM [cytotoxic, single point]"
9,C[C@]12C/C(=C/O)C(=O)C[C@@H]1CC[C@@H]1[C@@H]2CC[C@@]2(C)[C@H]1CC[C@]2(C)O,inconclusive: 69.2 µM [cytotoxic]
10,CSC1=N[C@@](C)(c2ccccc2)C(=O)N1Nc1ccccc1,"inconclusive: 17.2 µM [cytotoxic, partial curve]"

# System: not listed separately
# Test: Caspase-3/7 induction in HepG2 cells by small molecules, qHTS assay (AID 1346978); note: nearly all actives have a fitted effect of over 15% in size
# Details: HepG2 caspase-3/7 activation, Caspase-Glo luminescence, 17 h; series mostly up to 92.4 µM
# In short: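 Caspase-3/7 induction was measured by Caspase-Glo 3/7 luminescence (30 min, room temperature) after a 17 hr compound exposure of wild-type HepG2 cells seeded at 2,000 per well and pre-incubated 5 hr.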
row,Compound,Potency
1,CC(C)(C)c1ccccc1O,"inconclusive: 77.8 µM [activator, partial curve, poor fit]"
2,Cc1cc(C(C)(C)c2ccc(O)c(C)c2)ccc1O,"inconclusive: 65.3 µM [activator, single point]"
3,C[C@]12C/C(=C/O)C(=O)C[C@@H]1CC[C@@H]1[C@@H]2CC[C@@]2(C)[C@H]1CC[C@]2(C)O,"inconclusive: 69.2 µM [activator, single point]"
4,S=C=Nc1ccccc1,inactive
5,CC(=O)CCc1ccc2c(c1)OCO2,inactive
